Laboratory results reported in the supplement of paper PMC8728848.
The list shows a part of the results.

Key:
Test in all cases: glycan array binding signal (z-score within array); higher = stronger binding
Conditions in all cases: glycan notation: IUPAC condensed, linker removed
[1] = target: GlcNAc(b1-3)Gal(b1-4)GlcNAc
In short: (§1)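 From the Consortium for Functional Glycomics database, 3228 arrays were curated, keeping only those whose protein sequence was available. Binding is given as a within-array Z-score averaged across arrays sharing a protein sequence and across linkers. Negative Z-scores can be read as non-binding.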

[2] = target: GlcNAc(b1-3)Gal(b1-4)GlcNAc(b1-3)Gal(b1-4)GlcNAc
In short: as §1

GlcNAc(b1-3)GalNAc = target: GlcNAc(b1-3)GalNAc
In short: as §1

[3] = target: GlcNAc(b1-3)[GlcNAc(b1-6)]Gal(b1-4)GlcNAc
In short: as §1

[4] = target: GlcNAc(b1-3)[GlcNAc(b1-6)]GalNAc
In short: as §1

[5] = target: GlcNAc(b1-3)[GlcNAc(b1-6)]GlcNAc(b1-4)GlcNAc
In short: as §1

[6] = target: GlcNAc(b1-4)Gal(b1-4)GlcNAc
In short: as §1

[7] = target: GlcNAc(b1-4)GlcNAc(b1-4)GlcNAc
In short: as §1

[8] = target: GlcNAc(b1-4)GlcNAc(b1-4)GlcNAc(b1-4)GlcNAc(b1-4)GlcNAc
In short: as §1

[9] = target: GlcNAc(b1-4)GlcNAc(b1-4)GlcNAc(b1-4)GlcNAc(b1-4)GlcNAc(b1-4)GlcNAc
In short: as §1

[10] = target: GlcNAc(b1-4)[GlcNAc(b1-6)]GalNAc
In short: as §1

[11] = target: GlcNAc(b1-6)Gal(b1-4)GlcNAc
In short: as §1

GlcNAc(b1-6)GalNAc = target: GlcNAc(b1-6)GalNAc
In short: as §1

Kdn(a2-3)Gal(b1-3)GlcNAc = target: Kdn(a2-3)Gal(b1-3)GlcNAc
In short: as §1

Kdn(a2-3)Gal(b1-4)GlcNAc = target: Kdn(a2-3)Gal(b1-4)GlcNAc
In short: as §1

[12] = target: Man(a1-2)Man(a1-2)Man(a1-3)Man
In short: as §1

[13] = target: Man(a1-2)Man(a1-2)Man(a1-6)[Man(a1-3)]Man
In short: as §1

Man(a1-2)Man(a1-3)Man = target: Man(a1-2)Man(a1-3)Man
In short: as §1

[14] = target: Man(a1-2)Man(a1-3)[Man(a1-2)Man(a1-6)]Man
In short: as §1

[15] = target: Man(a1-2)Man(a1-3)[Man(a1-2)Man(a1-6)]Man(a1-6)[Man(a1-2)Man(a1-2)Man(a1-3)]Man(b1-4)GlcNAc(b1-4)GlcNAc
In short: as §1

[16] = target: Man(a1-2)Man(a1-3)[Man(a1-6)]Man(a1-6)[Man(a1-2)Man(a1-3)]Man(b1-4)GlcNAc(b1-4)GlcNAc
In short: as §1

[17] = target: Man(a1-2)Man(a1-6)[Man(a1-3)]Man(a1-6)[Man(a1-2)Man(a1-2)Man(a1-3)]Man(b1-4)GlcNAc(b1-4)GlcNAc
In short: as §1

Man(a1-3)[Man(a1-6)]Man = target: Man(a1-3)[Man(a1-6)]Man
In short: as §1

[18] = target: Man(a1-3)[Man(a1-6)]Man(a1-6)[Man(a1-2)Man(a1-3)]Man(b1-4)GlcNAc(b1-4)GlcNAc
In short: as §1

[19] = target: Man(a1-3)[Man(a1-6)]Man(a1-6)[Man(a1-3)]Man(b1-4)GlcNAc(b1-4)GlcNAc
In short: as §1

[20] = target: Man(a1-3)[Man(a1-6)]Man(b1-4)GlcNAc(b1-4)GlcNAc
In short: as §1

Man(b1-4)GlcNAc = target: Man(b1-4)GlcNAc
In short: as §1

Neu5Ac(a2-3)Gal = target: Neu5Ac(a2-3)Gal
In short: as §1

[21] = target: Neu5Ac(a2-3)Gal(b1-3)GalNAc
In short: as §1

[22] = target: Neu5Ac(a2-3)Gal(b1-3)GalNAc(b1-3)Gal(a1-4)Gal(b1-4)Glc
In short: as §1

[23] = target: Neu5Ac(a2-3)Gal(b1-3)GalNAc(b1-3)Gal(b1-4)GlcNAc
In short: as §1

[24] = target: Neu5Ac(a2-3)Gal(b1-3)GalNAc(b1-4)[Neu5Ac(a2-3)]Gal(b1-4)Glc
In short: as §1

[25] = target: Neu5Ac(a2-3)Gal(b1-3)GalNAc6S
In short: as §1

[26] = target: Neu5Ac(a2-3)Gal(b1-3)GlcNAc
In short: as §1

[27] = target: Neu5Ac(a2-3)Gal(b1-3)GlcNAc6S
In short: as §1

[28] = target: Neu5Ac(a2-3)Gal(b1-3)[Fuc(a1-4)]GlcNAc
In short: as §1

[29] = target: Neu5Ac(a2-3)Gal(b1-3)[Fuc(a1-4)]GlcNAc(b1-3)Gal(b1-4)[Fuc(a1-3)]GlcNAc
In short: as §1

[30] = target: Neu5Ac(a2-3)Gal(b1-3)[Neu5Ac(a2-3)Gal(b1-4)]GlcNAc
In short: as §1

B1: LKPARMA (Neurospora crassa) (protein)
chain: MSFHVTAEDARRIEVRDNRTILFARLRREDGEWNDASYELDQIIGNNDGHFQWGGGQNFTETAEDIRFHPKEGAAEQPILRARLRDCNGEFHDRDVNLTEIVENVNGEFQAKF
glycan array binding signal (z-score) [1]: -0.247
glycan array binding signal (z-score) [2]: -0.25
glycan array binding signal (z-score) (GlcNAc(b1-3)GalNAc): -0.249
glycan array binding signal (z-score) [3]: -0.23
glycan array binding signal (z-score) [4]: -0.199
glycan array binding signal (z-score) [5]: -0.24
glycan array binding signal (z-score) [6]: -0.252
glycan array binding signal (z-score) [7]: -0.243
glycan array binding signal (z-score) [8]: -0.251
glycan array binding signal (z-score) [9]: -0.254
glycan array binding signal (z-score) [10]: -0.251
glycan array binding signal (z-score) [11]: -0.25
glycan array binding signal (z-score) (GlcNAc(b1-6)GalNAc): -0.25
glycan array binding signal (z-score) (Kdn(a2-3)Gal(b1-3)GlcNAc): -0.252
glycan array binding signal (z-score) (Kdn(a2-3)Gal(b1-4)GlcNAc): -0.249
glycan array binding signal (z-score) [12]: 1.38
glycan array binding signal (z-score) [13]: 2.65
glycan array binding signal (z-score) (Man(a1-2)Man(a1-3)Man): -0.23
glycan array binding signal (z-score) [14]: 1.98
glycan array binding signal (z-score) [15]: 0.133
glycan array binding signal (z-score) [16]: -0.162
glycan array binding signal (z-score) [17]: -0.223
glycan array binding signal (z-score) (Man(a1-3)[Man(a1-6)]Man): -0.241
glycan array binding signal (z-score) [18]: -0.249
glycan array binding signal (z-score) [19]: -0.241
glycan array binding signal (z-score) [20]: -0.247
glycan array binding signal (z-score) (Man(b1-4)GlcNAc): -0.251
glycan array binding signal (z-score) (Neu5Ac(a2-3)Gal): -0.2
glycan array binding signal (z-score) [21]: -0.247
glycan array binding signal (z-score) [22]: -0.24
glycan array binding signal (z-score) [23]: -0.246
glycan array binding signal (z-score) [24]: -0.252
glycan array binding signal (z-score) [25]: -0.253
glycan array binding signal (z-score) [26]: -0.251
glycan array binding signal (z-score) [27]: -0.248
glycan array binding signal (z-score) [28]: -0.221
glycan array binding signal (z-score) [29]: 0.305
glycan array binding signal (z-score) [30]: -0.25
